Laboratory results published in patent publication US20090143279A1 (priority 2007, published 2009).

System: cellular ATP levels
Conditions: for ATP (composite Z-score): normalized score vs mock-treated (DMSO) wells
[1] = composite Z-score vs DMSO, Conc 20 μM
[2] = composite Z-score vs mock-treated (DMSO) wells, Conc 20 μM
[3] = normalized composite Z-score vs mock-treated (DMSO) wells, Conc 20 μM
[4] = 20 μM, composite Z-score vs DMSO

Molecule `COc1ccc(C[C@H](N)C(=O)N[C@H]2[C@@H](O)[C@H](n3cnc4c(N(C)C)ncnc43)O[C@@H]2CO)cc1` [Puromycin, reference compound] has an ATP [1] of −7.962.
`CO/N=C(\C(=O)N[C@@H]1C(=O)N2C(C(=O)O)=C(COC(C)=O)CS[C@H]12)c1csc(N)n1` [cefotaxime] gave an ATP [1] of 0.479.
In the case of `COc1ccc(-c2coc3cc(O)cc(O)c3c2=O)cc1` [biochanin A], the “ATP (composite Z-score)” value (Conc 20 μM) is reported as 0.278.
`CC(=O)O[C@@H]1CC2C(C)(C)CCC[C@]2(C)C2CC[C@]3(C)C(=CC(=O)O[C@H]3c3ccoc3)[C@@]21C` (some centres unmarked) [deoxodeoxydihydrogedunin] gave an ATP [2] of 0.419.
With `CC1CCC23CCC4(C)C5(C)CCC6C(C)(C)C(=O)CCC6(C)C5CCC4(OC2=O)C3C1C` (centres unmarked) [3-oxoursan (28-13)olide] the ATP [3] was 0.062.
With `CO[C@H]1[C@H](O)[C@H](O[C@H]2CC[C@@]3(C=O)[C@H](CC[C@@H]4[C@@H]3CC[C@]3(C)[C@@H](C5=CC(=O)OC5)CC[C@]43O)C2)O[C@@H](C)[C@@H]1O` [peruvoside] the ATP (composite Z-score vs DMSO wells, Conc 20 μM) was 0.065.
With `CC(C)C1COc2cc3oc(=O)ccc3cc2O1` (centres unmarked) [dihydro-obliquin] the ATP [3] was −0.036.
In the case of `COC1=C(OC)C(=O)C(C/C=C(\C)CC/C=C(\C)CC/C=C(\C)CC/C=C(\C)CC/C=C(\C)CC/C=C(\C)CC/C=C(\C)CC/C=C(\C)CC/C=C(\C)CCC=C(C)C)=C(C)C1=O` [coenzyme Q10], the “ATP (composite Z-score)” value (Conc 20 μM) is reported as 0.525.
Work on `C[C@@H]1O[C@@H](O[C@H]2C[C@@H](O)[C@]3(CO)[C@H]4[C@H](O)C[C@]5(C)[C@@H](C6=CC(=O)OC6)CC[C@]5(O)[C@@H]4CC[C@]3(O)C2)[C@H](O)[C@H](O)[C@H]1O` [ouabain] yielded an ATP [1] of 0.320.
With `CC(C)CCC[C@@H](C)[C@H]1CC[C@H]2[C@@H]3CC(=O)[C@H]4C[C@@H](O)CC[C@]4(C)[C@H]3CC[C@]12C` [5alpha-cholestan-3beta-ol-6-one] the ATP [1] was 2.248.
Work on “methyl 7-deshydroxypyrogallin-4-carboxylate” yielded an ATP [3] of 1.034.
Work on `CC[C@@H](C(=O)[C@@H](C)[C@@H](O)[C@H](C)CCc1ccc(C)c(O)c1C(=O)O)[C@H]1O[C@](CC)([C@H]2CC[C@](O)(CC)[C@H](C)O2)C[C@@H]1C` [lasalocid, reference compound] yielded an ATP [1] of −0.906.
With `C/C=C(/C(=C/C)c1ccc(O)cc1)c1ccc(O)cc1` [dienestrol] the ATP (15.02 μM, composite Z-score vs DMSO) was −0.794 and the ATP [4] was 0.336.
Work on `CO/N=C(\C(=O)N[C@@H]1C(=O)N2C(C(=O)O)=C(COC(N)=O)CS[C@H]12)c1ccco1` [cefuroxime] yielded an ATP [1] of 0.476.
`CC(C)(O)CC[C@@H](O)[C@](C)(O)[C@H]1CC[C@@]2(O)C3=CC(=O)[C@@H]4C[C@@H](O)[C@@H](O)C[C@]4(C)[C@H]3CC[C@]12C` [crustecdysone] was tested, and the “ATP (composite Z-score)” value (Conc 20 μM) was 0.693.
`CC(=O)OCC[N+](C)(C)C` [acetylcholine] was tested, and the ATP [4] was −0.013.
For `COc1cccc2c1CCC1=CC(=O)CCC12C` (centres unmarked), the ATP [2] was −0.516.
With `COc1cc2ccc(=O)oc2cc1O` [scopoletin] the ATP [4] was 2.444.
Molecule `O=C(Oc1cc(O)cc2c1C[C@@H](OC(=O)c1cc(O)c(O)c(O)c1)[C@@H](c1cc(O)c(O)c(O)c1)O2)c1cc(O)c(O)c(O)c1` [epigallocatechin 3,5-digallate] has an ATP [3] of 1.156.
With `CC1=CC(=O)C2=C(C)CC[C@@H]3[C@H](OC(=O)[C@H]3C)[C@@H]12` [leucodin] the “ATP (composite Z-score)” value (Conc 20 μM) was −1.027.
With `C[C@]12CCC3c4ccc(OC(=O)c5ccccc5)cc4CCC3C1CCC2=O` (some centres unmarked) [estrone benzoate] the ATP [1] was 0.592.
Work on `CC1C(=NO)CC2CC1C2(C)C` (centres unmarked) [3-pinanone oxime] yielded an ATP [3] of 0.209.
For `CC1(C)C=CC(=O)[C@@]2(C)C1CC(=O)[C@]1(C)C2CC[C@@]2(C)[C@H](c3ccoc3)OC(=O)C3OC321` (some centres unmarked) [deacetoxy-7-oxisogedunin], the “ATP (composite Z-score)” value (Conc 20 μM) was −0.566.
Work on `CC(=O)CCCCn1c(=O)c2c(ncn2C)n(C)c1=O` [pentoxifylline] yielded an ATP [4] of −0.027.
`CC(=O)O[C@@H]1C[C@H]2C(C)(C)C(=O)C=C[C@]2(C)[C@H]2CC[C@]3(C)C(=CC(=O)O[C@H]3c3ccoc3)[C@@]21C` [deoxygedunin] gave an ATP [1] of 1.094.

Like-named read-outs stand apart in the source and are kept apart here.
